Results from PubChem BioAssay AID686979 (National Center for Advancing Translational Sciences (NCATS), 2013).
Where “and” joins values, the source holds several entries; their conditions need not be identical. Equal entries are not always repeated. In all, about 420,000 compounds went through this assay and about 50,000 (12%) were called active. The shares of active, inactive and inconclusive entries below differ from those in the screen. Calls follow the shape of the dose curve; as a rule, active = well fitted inhibition curve with a large enough effect; inconclusive = small, poorly fitted or top-dose-only effect; inactive = flat fitted curve, though single readings scatter. A potency beside an inconclusive call is a rough fit, not a confirmed value.

Assay: qHTS for Inhibitors of human tyrosyl-DNA phosphodiesterase 1 (TDP1): qHTS in cells in presence of CPT; also: nearly all actives have a fitted effect of over 55% in size
Details: chicken DT40 Tdp1-/-;hTDP1 cells + 20 nM CPT, ATP luminescence, 48 h; activity change, negative = growth inhibition: at 46.2 µM (top of the series)
How it was run: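 Cell growth measured by CellTiter-Glo luminescence after a minimum 48 h, 37 C compound exposure with 20 nM CPT in Tdp1-knockout DT40 cells stably expressing hTDP1, seeded 400/well; qHTS titration format.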
% is scaled to controls: 0 for no effect and ±100 for the full control effect; potency is read from the fitted curve at half-maximal effect; tags tell the direction and shape of the fitted curve.

SMILES	Potency	activity change, negative = growth inhibition
CCOc1ccc(CNC(=O)C2CCCN(c3nnc(C)c4c(C)n(-c5ccccc5)nc34)C2)cc1 (stereo unspecified)	active: 13 µM	–
CCCCN(CCCC)S(=O)(=O)c1ccc2oc(C(=O)N3CCOCC3)c(C)c2c1	inconclusive: 18.4 µM [inhibitor, single point]	–
O=S(=O)(c1ccccc1)N1CCN(CCO)CC1	–	inactive: 7.36%
O=S1(=O)CCO[C@H]2Cc3ccccc3[C@H]2N1Cc1ccccc1Br	inconclusive: 22.4 µM [inhibitor, single point] and inconclusive: 29.1 µM [inhibitor, single point]	–
COc1ccc(NC2=C3CCCC=C3N(c3ccc(OC)cc3)C2=O)cc1	inconclusive: 16.4 µM [inhibitor, single point]	–
O=C1C(c2ccc(F)cc2)N(CC2COc3ccccc3O2)C(=O)CN1C1CCCCC1 (stereo unspecified)	inconclusive: 28.2 µM [inhibitor, single point]	–
O=C(NCc1ccccc1)c1cc(C2CCCCN2C(=O)c2ccc(Cl)cc2)on1 (stereo unspecified)	inconclusive: 25.9 µM [inhibitor, single point]	–
Nc1nonc1C(=O)NCCNC(=O)c1cccs1	–	inactive: -4.85%
OCCNCc1cc(Br)ccc1OCc1ccc(Cl)cc1	active: 20.6 µM	–
Cc1nn2c(C)c(C(=O)NC(C)c3ccccc3)cnc2c1-c1ccc(F)cc1 (stereo unspecified)	–	inactive: -6.38%
Cc1c(NS(=O)(=O)c2cc(C(=O)NC(C)c3ccccc3)ccc2Cl)c(=O)n(-c2ccccc2)n1C (stereo unspecified)	inconclusive: 13 µM [inhibitor, partial curve]	–
CC(=O)c1cccc(NC(=O)c2ccc(N(C)S(=O)(=O)c3ccc(C)cc3)cc2)c1	inconclusive: 29.1 µM [inhibitor, single point]	–
CCOC(=O)c1[nH]c(C=O)c(C(=O)OCC)c1C	active: 0.651 µM	–
COc1ccc(Cl)cc1NC(=S)N1CCN(c2ccccn2)CC1	inconclusive: 29.1 µM [inhibitor, single point]	–
CC(C)(C)CC(=O)NCCc1csc(-c2ccccc2)n1	inconclusive: 29.1 µM [inhibitor, single point]	–
CCC(=O)N1CCCc2cc(S(=O)(=O)N3CCC(C(=O)NCc4ccc(F)cc4)CC3)ccc21	inconclusive: 14.6 µM [inhibitor, partial curve, poor fit]	–
COc1ccc(C(C)NCCC(c2ccc(OC(C)C)cc2)c2ccccc2OC)cc1 (stereo unspecified)	active: 5.8 µM	–
CCCCn1c(N)c(N(CCC(C)C)C(=O)CC2OC(=O)c3ccccc32)c(=O)[nH]c1=O (stereo unspecified)	–	inactive: -12.2%
COc1ccc(OC(C)C(=O)N(C)Cc2nc(-c3cccc(C)c3)no2)cc1 (stereo unspecified)	–	inactive: -21.4%
COc1ccc(C)cc1NC(=O)c1cc2c(=O)n3cccc(C)c3nc2s1	–	inactive: 1.78%
CCOC(=O)c1c(C)[nH]c(C)c1C(=O)COC(=O)/C=C/c1ccc(OC(F)F)cc1	inconclusive: 32.6 µM [inhibitor, single point]	–
CC(C)CCOc1ccc(CC(=O)NO)cc1	inconclusive: 17.8 µM [inhibitor, single point]	–

SMILES	Potency	activity change, negative = growth inhibition
CC(O)(c1cccnc1)c1nc(-c2cc(F)cc(F)c2)cs1 (stereo unspecified)	inconclusive: 18.4 µM [inhibitor, single point]	–
CCc1ccccc1C1C(=O)c2ccccc2C1=O	–	inactive: -3.48%
COc1ccc(Cl)cc1NC(=O)c1cn(C2CCCC2)c(=O)c2c1c1ccccc1n2C	inconclusive: 29.1 µM [inhibitor, single point]	–
CC[C@]1(O)C[C@@H]2CN(CCc3c([nH]c4ccccc34)[C@](C(=O)OC)(c3cc4c(cc3OC)N(C=O)[C@H]3[C@@](O)(C(=O)OC)[C@H](C(=O)OC)[C@@]5(CC)C=CCN6CC[C@]43[C@H]65)C2)C1	active: 0.0266 µM	–
CCN(C(=O)COC(=O)CCOc1ccccc1C)c1c(N)n(Cc2ccccc2)c(=O)[nH]c1=O	–	inactive: -24.9%
CCN(CC)C(=O)CCc1nc2sc3c(c2c(=O)[nH]1)CCCC3	inconclusive: 20.6 µM [inhibitor, partial curve]	–
O=C(NCCc1ccccc1)c1ccc(-c2cccnc2)c2ccoc12	inconclusive: 25.9 µM [inhibitor, single point]	–
Nc1c(C(=O)CSc2nnnn2-c2ccccc2)c(=O)[nH]c(=O)n1C1CC1	inconclusive: 16.4 µM [inhibitor, partial curve, poor fit]	–
Cc1cccc(OCCNc2cc(N3CCN(C)CC3)ccc2[N+](=O)[O-])c1	inconclusive: 29.1 µM [inhibitor, single point]	–
COc1ccccc1-c1noc(-c2cc(OC)c(OC)c(OC)c2)n1	inconclusive: 20.6 µM [inhibitor, single point]	–
CC(=O)Nc1cccc(NC(=O)CSc2nccn2Cc2ccc(F)cc2)c1	–	inactive: -29%
O=C(NCC(c1cccs1)S(=O)(=O)c1ccccc1)c1ccc(C(F)(F)F)cc1 (stereo unspecified)	inconclusive: 18.4 µM [inhibitor, single point]	–
O=C(Nc1ccc(F)cc1)c1ccc2c(=O)n3c(nc2c1)CCCCC3	inconclusive: 25.9 µM [inhibitor, single point] and inconclusive: 23.1 µM [inhibitor, single point]	–
COc1ccc(C)cc1N(C(=O)c1ccc(C#N)cc1)C1=NC(C)(C)CS1	–	inactive: -1.65%
Cc1cccc(N(CC(=O)Nc2ccccc2C(F)(F)F)S(=O)(=O)c2ccccc2)c1C	active: 16.4 µM	–
COc1ccc(CNC(=S)NC2CCCC2)cc1	inconclusive: 25.9 µM [inhibitor, single point]	–
COc1ccc(OC)c(CN2C(=O)c3ccccc3C2C(=O)NCC2CCCO2)c1 (stereo unspecified)	–	inactive: 0.464%
CC(=NCCN1CCNCC1)C1=C(O)CC(C)(C)CC1=O	inconclusive: 6.51 µM [inhibitor, single point]	–
O=c1oc(/C=C/c2ccccc2)nc2sc3c(c12)CCC3	–	inactive: -13.1%
CCCC(=O)Nc1c(C(=O)OCC)[nH]c2ccccc12	–	inactive: -21%
C[C@@H]1CN([C@H](C)CO)S(=O)(=O)c2ccc(-c3cccc(C#N)c3)cc2O[C@H]1CN(C)C(=O)Nc1cc(F)ccc1F	inconclusive: 18.4 µM [inhibitor, single point]	–
COCCCNC(=O)CSc1nc2c(sc3ccccc32)c(=O)n1CCc1ccc(OC)c(OC)c1	inconclusive: 10.3 µM [inhibitor, partial curve]	–

SMILES	Potency	activity change, negative = growth inhibition
CC1CCc2[nH]c3ccc(C(=O)N(C)CC(=O)Nc4ccccc4Cl)cc3c2C1 (stereo unspecified)	inconclusive: 16.4 µM [inhibitor, partial curve]	–
CCOc1ncccc1C(=O)N1CCN(C(c2ccccc2)c2ccccc2)CC1	active: 13 µM	–
CC12C(=O)N(Cc3ccco3)C(=O)C1C1c3ccccc3C2c2ccccc21 (stereo unspecified)	inconclusive: 20.6 µM [inhibitor, single point]	–
Cc1ccc(S(=O)(=O)N/N=C/c2ccc(O)cc2O)cc1[N+](=O)[O-]	–	inactive: -28.8%
COc1ccc(NC(=O)CSc2ccc(-c3ccco3)nn2)cc1	inconclusive: 18.4 µM [inhibitor, single point]	–
O=C(Oc1ccc(Br)cc1C(=S)N1CCCCC1)c1cc([N+](=O)[O-])cc([N+](=O)[O-])c1	inconclusive: 23.1 µM [inhibitor, single point]	–
O=C(Nc1ccc(Cl)c(S(=O)(=O)N2CCCCC2)c1)c1cccnc1	active: 18.4 µM	–
COc1ccc(CNC(=O)CSc2ncc3c(n2)-c2ccc(Cl)cc2N(Cc2ccccc2)S3(=O)=O)cc1	inconclusive: 20.6 µM [inhibitor, single point]	–
Cc1cc(Cl)ccc1OCC(=O)N(Cc1ccco1)Cc1ccccc1F	inconclusive: 16.4 µM [inhibitor, single point]	–
CCN(CC(=O)Nc1c(F)cccc1F)C(=O)C1CCCN(C(=O)c2ccc(Cl)cc2)C1 (stereo unspecified)	–	inactive: -0.804%
CCOc1cccc(-c2c(C(=O)N/N=C/c3ccc(C)o3)nnn2-c2nonc2N)c1	–	inactive: -18.4%
CCn1c(COc2ccc(=O)n(-c3ccccc3)n2)nnc1SC	–	inactive: 10.9%
CCC(=O)Nc1ccc(C(=O)COC(=O)c2sc(C)nc2C)cc1	–	inconclusive: -32.4% [inhibitor]
Cc1oc(-c2ccccc2NC(=O)c2ccccn2)nc1CNC(=O)c1cccc(C#CC(C)(C)O)c1	inconclusive: 6.51 µM [inhibitor, single point]	–
O=[N+]([O-])c1cccc(-c2ccc(SCc3ccccn3)nn2)c1	inconclusive: 29.1 µM [inhibitor, single point]	–
CCOc1ccccc1NC(=O)CCc1c(C)nn(-c2ccc(N3CCCCC3)nn2)c1C	active: 23.1 µM	–
CC(=O)Nc1ccc(-c2csc(NC(=O)Cc3ccccc3F)n2)cc1	inconclusive: 25.9 µM [inhibitor, single point]	–
COc1ccc(S(=O)(=O)N(C)CC(=O)Nc2c(F)cccc2F)cc1	–	inconclusive: -31.8% [inhibitor]
COc1ccc(NS(=O)(=O)c2cccc(NC(=O)C3=NN(c4ccccc4)C(=O)CC3)c2)cc1	inconclusive: 29.1 µM [inhibitor, single point]	–
COc1ccc(-c2nc(S(=O)(=O)c3ccc(C)cc3)c(N3CCCC3)o2)cc1	–	inactive: -19.1%
C[C@H](CO)N1C[C@H](C)[C@@H](CN(C)C(=O)Nc2ccc(F)cc2)Oc2cc(Br)ccc2S1(=O)=O	inconclusive: 25.9 µM [inhibitor, single point]	–
COc1ccc(CN(C)C(=O)CCC(=O)N2CCN(S(=O)(=O)c3ccc(Cl)cc3)CC2)c(OC)c1	inconclusive: 29.1 µM [inhibitor, single point]	–
